Results from a compilation of properties of binary mixtures (doi:10.1021/je200600p).
Some of these densities may be calculated back from excess volumes.

Test: xn = mol fraction of the nth substance listed
Conditions: 101 kPa

CCCC[n+]1ccn(C)c1.COP(=O)([O-])OC + CCO
mass density [kg/m3]
Conditions | 293.15 K | 298.15 K | 303.15 K | 308.15 K | 313.15 K | 318.15 K | 323.15 K | 328.15 K | 333.15 K
x2 = 0.201 | 1144.7 | 1141.4 | 1138.1 | – | 1131.4 | 1128.1 | 1124.8 | 1121.5 | 1118.2
x2 = 0.399 | – | – | 1108 | 1104.6 | – | – | – | – | –
x2 = 0.6 | 1069 | 1065.5 | 1061.9 | 1058.4 | 1054.9 | 1051.4 | 1047.9 | 1044.3 | 1040.8
x2 = 0.8 | 986.3 | 982.6 | 978.8 | – | – | 967.7 | – | – | 956.5

CC[n+]1ccn(C)c1.COP(=O)([O-])OC + CCO
mass density [kg/m3]
Conditions | 293.15 K | 298.15 K | 303.15 K | 308.15 K | 313.15 K | 318.15 K | 323.15 K | 328.15 K | 333.15 K
x2 = 0.199 | 1196.1 | 1192.7 | 1189.2 | 1185.8 | 1182.4 | 1179 | 1175.6 | – | 1168.9
x2 = 0.398 | 1158.2 | – | – | 1147.7 | 1144.2 | – | 1137.3 | 1133.9 | 1130.5
x2 = 0.598 | 1098.9 | – | 1091.7 | 1088.1 | 1084.5 | – | 1077.4 | 1073.8 | 1070.3
x2 = 0.798 | 998.8 | 995 | 991.2 | – | 983.7 | 979.9 | 976.1 | 972.3 | 968.6

CCCC[n+]1ccn(C)c1.COP(=O)([O-])OC + CO
mass density [kg/m3]
Conditions | 293.15 K | 298.15 K | 303.15 K | 308.15 K | 313.15 K | 318.15 K | 323.15 K | 328.15 K | 333.15 K
x2 = 0.203 | 1152.3 | 1149 | 1145.6 | 1142.3 | 1139 | 1135.6 | 1132.3 | 1129 | 1125.7
x2 = 0.404 | 1132.5 | 1129.1 | 1125.7 | – | 1118.9 | – | 1112.1 | 1108.7 | 1105.4
x2 = 0.6 | 1098.2 | 1094.6 | 1091.1 | 1087.5 | 1083.9 | 1080.4 | 1076.8 | 1073.1 | 1069.3
x2 = 0.8 | – | 1022.9 | 1019 | 1015.5 | – | 1008 | 1004.2 | 1000.5 | 996.7

CC[n+]1ccn(C)c1.COP(=O)([O-])OC + CO
mass density [kg/m3]
Conditions | 293.15 K | 298.15 K | 303.15 K | 308.15 K | 313.15 K | 318.15 K | 323.15 K | 328.15 K | 333.15 K
x2 = 0.198 | 1207.1 | 1203.7 | 1200.2 | 1196.8 | 1193.4 | 1190 | 1186.6 | 1183.3 | 1180
x2 = 0.399 | 1179.1 | 1175.6 | 1172.1 | 1168.6 | 1165.2 | 1161.7 | 1158.3 | – | –
x2 = 0.598 | 1134.9 | – | 1127.6 | 1123.8 | 1120.2 | 1116.4 | 1112.6 | 1108.8 | 1105
x2 = 0.799 | 1049.1 | 1045.3 | 1041.4 | 1037.6 | 1033.8 | – | 1026.1 | 1022.3 | 1018.5

CCCC[n+]1ccn(C)c1.COP(=O)([O-])OC + O
mass density [kg/m3]
Conditions | 293.15 K | 298.15 K | 303.15 K | 308.15 K | 313.15 K | 318.15 K | 323.15 K | 328.15 K | 333.15 K
x2 = 0.201 | 1165.7 | 1162.4 | – | 1155.9 | 1152.5 | 1149.2 | 1145.9 | 1142.6 | 1139.3
x2 = 0.398 | 1165.7 | – | 1159.1 | 1155.7 | 1152.4 | – | 1145.7 | – | 1139
x2 = 0.601 | 1162.9 | 1159.4 | – | 1152.5 | 1149 | 1145.5 | 1142 | 1138.5 | 1135.1
x2 = 0.799 | 1148.8 | 1145.2 | 1141.6 | 1137.9 | – | 1130.3 | 1126.6 | 1122.8 | 1118.9

CC[n+]1ccn(C)c1.COP(=O)([O-])OC + O
mass density [kg/m3]
Conditions | 293.15 K | 298.15 K | 303.15 K | 308.15 K | 313.15 K | 318.15 K | 323.15 K | 328.15 K | 333.15 K
x2 = 0.198 | – | – | – | 1213.2 | 1209.9 | – | 1203.2 | 1199.8 | –
x2 = 0.399 | 1222.6 | 1219.2 | 1215.8 | 1212.5 | 1209.1 | – | 1202.4 | – | 1195.6
x2 = 0.6 | 1217.9 | 1214.4 | 1211 | 1207.5 | 1204.1 | 1200.6 | 1197.1 | 1193.6 | 1190.1
x2 = 0.799 | 1195 | 1191.4 | 1187.7 | 1184 | 1180.2 | – | 1172.7 | 1168.8 | 1165
